# Experimental data taken from the BET-seq Pho4 binding data (Le et al. 2018).
# This is one part of the list. Values were computed here from the reads of four pooled replicates and scatter widely.
# Target: T1, Pho4 (S. cerevisiae) (UniProt P07270)
# T1 sequence: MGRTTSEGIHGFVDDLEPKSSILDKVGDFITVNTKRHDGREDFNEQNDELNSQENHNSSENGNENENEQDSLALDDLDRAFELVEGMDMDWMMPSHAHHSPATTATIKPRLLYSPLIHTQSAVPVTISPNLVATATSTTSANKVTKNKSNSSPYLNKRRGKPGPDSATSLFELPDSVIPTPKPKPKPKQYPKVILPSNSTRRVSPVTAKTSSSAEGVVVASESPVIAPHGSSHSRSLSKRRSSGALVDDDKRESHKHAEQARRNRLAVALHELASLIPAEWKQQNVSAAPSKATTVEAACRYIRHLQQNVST
# Assay: relative binding free energy (BET-seq); higher = weaker binding
# Details: reference: library average
row,Sequence,relative binding free energy [kcal/mol]
1,CGTGGCACGTGTAGTT,-0.06
2,TGCGGCACGTGTTAGC,-0.06
3,GCTGTCACGTGTGAGT,0.11
4,TGCGTCACGTGAGTGC,0.13
5,TCTAACACGTGTTGGT,-0.11
6,GGGATCACGTGATGGC,0.31
7,GTTTTCACGTGTACAT,0.36
8,TGATTCACGTGACGGC,0.48
9,GGAAGCACGTGGGTGG,-0.22
10,GGTTGCACGTGTCATT,0.09
11,AATGTCACGTGTGTTC,0.23
12,AGGTGCACGTGAGTGG,0.26
13,AAGTTCACGTGGACGG,0.36
14,TTGAGCACGTGGTTGC,-0.13
15,TTTGCCACGTGTGATA,0.03
16,TTGTTCACGTGAGATC,0.39
17,GTGTGCACGTGCAGGT,0.01
18,TTAAACACGTGGTGGA,-0.07
19,TGGCGCACGTGGCGAG,-0.19
20,TGCGGCACGTGGTGAA,-0.08
21,GGAAGCACGTGGAATT,0.16
22,CGGGTCACGTGGGTGT,-0.05
23,ATGCGCACGTGTGGAT,-0.04

row,Sequence,relative binding free energy [kcal/mol]
1,GTTGACACGTGTAGAT,0.12
2,GGCGGCACGTGAGTTG,0.2
3,ATTTGCACGTGATGAA,0.1
4,TGAGACACGTGAGTGG,0.26
5,TGGTGCACGTGTTGCT,-0.24
6,AGACACACGTGGTGGG,-0.16
7,TGAATCACGTGGGTAG,0.03
8,ATATTCACGTGGTTAG,0.19
9,GTGGACACGTGGTCGT,-0.01
10,TAGTGCACGTGGATCG,0.04
11,GAAATCACGTGTTGTA,0.14
12,GTCGTCACGTGTGTAA,0.25
13,GTCTTCACGTGGGGAG,0.2
14,TTAAACACGTGTGAGG,0.16
15,TTAGACACGTGATAGG,0.08
16,GACTTCACGTGGTTGT,0.26
17,AGGTCCACGTGTTTAG,0.07
18,AGTTTCACGTGTAGGC,0.18
19,ATGGGCACGTGCGGAA,-0.17
20,CGTATCACGTGCTGGG,-0.04
21,TTGAGCACGTGGAGGC,-0.14
22,ATTCTCACGTGTTAGG,0.21
23,TATGACACGTGTTAAA,0.11

row,Sequence,relative binding free energy [kcal/mol]
1,GGGGTCACGTGATTAG,0.22
2,TGGTGCACGTGGGAAA,-0.1
3,TTTAGCACGTGGTGAC,-0.18
4,TGTGGCACGTGGTTGT,-0.04
5,CATGGCACGTGTTATG,-0.03
6,GGTCTCACGTGGGGGG,0.13
7,AGGACCACGTGTATTT,0.15
8,TTACGCACGTGGGTGC,-0.27
9,TACGGCACGTGGATAG,0.01
10,TTCATCACGTGCTGGT,0.08
11,GTCAGCACGTGCAGGG,0.06
12,GGTATCACGTGTTGCT,0.24
13,AGTGCCACGTGGTTGG,-0.19
14,GGTGTCACGTGTAGCG,0.07
15,TTCAGCACGTGAGTTA,0.18
16,CATGGCACGTGTGGTG,-0.13
17,ATTGTCACGTGTTTCT,0.07
18,TAGCGCACGTGGAATT,0.18
19,GGTGTCACGTGAATGA,0.37
20,GGCGACACGTGGCGGT,-0.03
21,ATGTCCACGTGGTGCG,-0.12
22,TATTTCACGTGGGATG,0.26
23,GAGTTCACGTGCGTAG,0.17

row,Sequence,relative binding free energy [kcal/mol]
1,ATTTTCACGTGCCTTT,0.15
2,CGCGACACGTGGGTTG,0.05
3,GATTTCACGTGGACGG,0.32
4,GTGGGCACGTGGAGCT,-0.03
5,GGTTTCACGTGTGTTG,0.31
6,TGTGACACGTGAGTGC,0.19
7,TAGCACACGTGTGGGT,0.05
8,CTGTCCACGTGGGGGG,-0.29
9,TAGTTCACGTGACTTT,0.31
10,AAGGCCACGTGTGGGA,-0.08
11,ATTGGCACGTGGTTGC,-0.1
12,CTGGTCACGTGTGCGG,0.07
13,GATCTCACGTGAGGTT,0.5
14,TTGTTCACGTGCGTTT,0.24
15,CTGTGCACGTGGAGGG,0.07
16,GGGTACACGTGGTGCT,0.06
17,GCGGTCACGTGGGAGG,0.05
18,TTGAGCACGTGGTAGC,-0.1
19,AGTAACACGTGCTGTG,-0.05
20,AGGCGCACGTGTGCTG,-0.17
21,GAAGTCACGTGGCGGT,0.09
22,CTGGGCACGTGGTATA,-0.35
23,GTGAGCACGTGATGTC,0.12

row,Sequence,relative binding free energy [kcal/mol]
1,GGGCTCACGTGTGAAG,0.3
2,GTAATCACGTGGGTAG,0.05
3,CAATTCACGTGTGTTT,0.33
4,TGGATCACGTGTAAGA,0.35
5,GAGGTCACGTGCAGTT,0.07
6,ATCGACACGTGTGAGG,0.16
7,GATGGCACGTGGTAGG,-0.15
8,TGCAACACGTGGGGAT,-0.05
9,GTTTTCACGTGGGCGG,0.28
10,TTAGGCACGTGCTTGT,-0.11
11,GTGGTCACGTGAGTTA,0.25
12,TAATGCACGTGAGTTT,0.23
13,GATTTCACGTGTTACG,0.26
14,TGAGGCACGTGTCGTA,-0.15
15,TGAGACACGTGTAGTT,0.09
16,ATTGGCACGTGATAGT,0
17,ATCGTCACGTGTTGGT,0.08
18,TGTTCCACGTGAGTAG,0.28
19,TGTCACACGTGTAAGG,0
20,TATTACACGTGAGCGG,0.19
21,GTTGTCACGTGGCGAA,0.09
22,GGTTGCACGTGTTTTA,0.19
23,ATTGGCACGTGGTAGT,-0.12
